Measurements published in PMC4336329 (PLoS ONE, 2015).
In all, about 310,000 compounds went through this assay and about 14,000 (4.5%) showed an effect of 50% or more. The effect is printed as a negative number. Some of the results follow.

Biological target: human ether-à-go-go-related gene (hERG) potassium channel (human, UniProt Q12809)
Test: primary screen, population patch clamp on CHO cells stably expressing hERG
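Also: peak tail current of the secondary pulse compared with the same well before compound.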

Sequence of human ether-à-go-go-related gene (hERG) potassium channel (Q12809 whole entry, looked up): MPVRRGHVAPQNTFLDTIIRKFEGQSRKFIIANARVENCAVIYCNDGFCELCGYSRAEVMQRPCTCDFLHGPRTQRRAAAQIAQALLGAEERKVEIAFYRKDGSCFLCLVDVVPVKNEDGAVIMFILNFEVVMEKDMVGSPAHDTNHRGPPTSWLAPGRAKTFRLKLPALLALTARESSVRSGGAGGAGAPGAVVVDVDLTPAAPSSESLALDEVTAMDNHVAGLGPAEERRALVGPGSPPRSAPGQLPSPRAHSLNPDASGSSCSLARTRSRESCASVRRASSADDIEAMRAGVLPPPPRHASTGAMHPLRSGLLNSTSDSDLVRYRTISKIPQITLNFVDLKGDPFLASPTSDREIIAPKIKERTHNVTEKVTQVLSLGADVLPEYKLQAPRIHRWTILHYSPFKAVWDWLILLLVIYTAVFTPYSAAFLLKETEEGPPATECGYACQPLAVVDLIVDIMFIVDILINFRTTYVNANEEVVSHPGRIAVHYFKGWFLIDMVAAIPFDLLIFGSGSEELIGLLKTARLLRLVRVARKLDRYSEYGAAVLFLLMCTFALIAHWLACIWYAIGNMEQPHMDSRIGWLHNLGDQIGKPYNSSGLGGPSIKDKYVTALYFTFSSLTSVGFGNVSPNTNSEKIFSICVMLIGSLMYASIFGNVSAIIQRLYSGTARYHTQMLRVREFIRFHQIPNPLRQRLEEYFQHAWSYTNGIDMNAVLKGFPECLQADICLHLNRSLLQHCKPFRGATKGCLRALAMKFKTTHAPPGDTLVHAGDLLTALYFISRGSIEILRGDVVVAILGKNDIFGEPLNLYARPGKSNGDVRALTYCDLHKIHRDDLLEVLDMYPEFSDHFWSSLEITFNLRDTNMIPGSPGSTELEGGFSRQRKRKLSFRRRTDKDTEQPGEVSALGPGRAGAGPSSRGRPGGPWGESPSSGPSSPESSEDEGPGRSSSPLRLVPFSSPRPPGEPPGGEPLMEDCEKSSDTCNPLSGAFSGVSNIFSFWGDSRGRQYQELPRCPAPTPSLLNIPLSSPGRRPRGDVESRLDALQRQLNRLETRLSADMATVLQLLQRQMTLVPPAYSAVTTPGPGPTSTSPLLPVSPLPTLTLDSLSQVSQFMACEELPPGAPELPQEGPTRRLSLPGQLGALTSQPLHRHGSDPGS

Row | SMILES | hERG current change (%, negative = inhibition) at 10uM
1 | CN(CC(=O)Nc1ccccc1C(F)(F)F)C(=O)c1cc([N+](=O)[O-])ccc1N1CCOCC1 | 12.6%
2 | O=C(NCc1ccc(F)cc1)C1CC(=O)N(CCc2ccccc2)C1 (centres unmarked) | -24.1%
3 | CCC(=O)Nc1ccc(NC(=O)Cc2ccccc2)cn1 | 5.6%
4 | CC(C)(C)NC(=O)CN(Cc1cccs1)C(=O)c1csnn1 | 4.73%
5 | CCCCC(=O)Nc1cnc(NC(=O)c2ccco2)cc1C | -27.5%
6 | CCCCn1c(SCC(=O)Nc2nnc(C)s2)nnc1-c1ccoc1C | 2.29%
7 | Cc1c(Cl)cccc1NC(=S)N1CCOCC1 | 9.36%
8 | O=C(Cc1ccc(Cl)cc1)Nc1cc(Cl)ccn1 | -17.3%
9 | COc1cc(/C=N/Nc2ccccn2)ccc1O | -4.36%
10 | CCCCN(CCCNC(=O)C1CCCN(S(=O)(=O)CCC)C1)Cc1ccccc1 (centres unmarked) | -49.3%
11 | Cc1nc2ccc(NC(=O)c3ccc(S(=O)(=O)N(C)C)cc3)cc2s1 | 16.6%
12 | CCOc1ccc2c(c1)C(C)=CC(C)(C)N2C(=O)Nc1ccccc1F | 11.3%
13 | c1ccc(-n2cc(CN3CCCC(CN4CCCC4)C3)c(-c3ccc4c(c3)OCO4)n2)cc1 (centres unmarked) | -29.2%
14 | O=C(CCN1CCN(Cc2ccccc2)CC1)NNC(=O)Cc1ccc(Cl)c(Cl)c1 | -74.7%
15 | O=S(=O)(NCc1ccccc1Br)c1cccs1 | -8.38%
16 | Cc1ccccc1NC(=O)c1c(C)[nH]c(=S)c(C#N)c1-c1ccco1 | 10.3%
17 | CCc1ccc(C(=O)OCC(=O)NC2CCCC2)cc1 | 11.8%
18 | CCc1ccc2nc(N(CCCN(C)C)C(=O)c3ccc4c(c3)OCCO4)sc2c1.Cl | -48.3%
19 | Cc1ccc(CN2CC34C=CC(O3)C(C(=O)NCc3ccco3)C4C2=O)cc1 (centres unmarked) | -6.72%

Row | SMILES | hERG current change (%, negative = inhibition) at 10uM
20 | Cc1noc(/C=C/N(C)C)c1S(=O)(=O)N1CCC(C(=O)Nc2ccc(Cl)cc2)CC1 | -11.3%
21 | CSc1nc(-c2ccco2)nn1C(=O)CCc1ccccc1 | 25%
22 | COc1ccc(CN2CCN(c3ncnc4scc(-c5ccc(F)cc5)c34)CC2)cc1 | -65.8%
23 | Cc1cc(Cl)c(S(=O)(=O)NCc2ccccc2)cc1OCC(N)=O | -23.6%
24 | Nc1nc(-c2cccnc2)nc2sc3c(c12)CCCC3 | 0.573%
25 | COc1ccccc1NC(=O)/C(C#N)=C/c1ccc(OCCN2CCOCC2)c(OC)c1 | -6.48%
26 | O=C(Cn1cnc2c(cnn2-c2ccccc2)c1=O)NC1CCCC1 | -17.5%
27 | CCC(C(=O)Nc1nc(C)c(C)s1)c1ccccc1 (centres unmarked) | 12.5%
28 | CCN(C(=O)COc1cc(OC)ccc1C(C)=O)C1CCS(=O)(=O)C1 (centres unmarked) | -2.94%
29 | COc1ccc(Nc2ncnc3c2c(C)c(C)n3CCCN(C)C)cc1 | -32.7%
30 | CCOC(=O)/C(C(=O)Nc1ccccc1Cl)=C1/NC(C)(C)Cc2ccccc21 | -7.22%
31 | CCN(CC)C(=O)C1CC(=O)N(c2ccc(OC)cc2)C1c1ccc(OC)cc1 (centres unmarked) | 18.9%
32 | CCOc1ccc(NC(=O)Nc2ccc(Br)cn2)cc1 | 12.1%
33 | Cc1ccccc1C(=O)N1CC(=O)Nc2ccc(F)cc2C1c1ccc(F)cc1 (centres unmarked) | -16.1%
34 | COCCN(CC1CCCN(C2Cc3ccccc3C2)C1)C(=O)CCC(F)(F)F (centres unmarked) | -55.4%
35 | COc1ccc(/C=C2\C(=O)c3ccccc3OC2c2ccccc2)cc1 (centres unmarked) | 7.66%
36 | COc1cc2c3c(c1)C1(C(=O)N3C(C)(C)C=C2C)C(C#N)=C(N)Oc2cc(O)ccc21 (centres unmarked) | -12%
37 | CC[C@H](C)C(N)c1cn(C(CCCN=C(N)N)C(=O)N2CCNCC2)nn1 (some centres unmarked) | 5.4%
38 | Cc1ccc(/C(O)=C2\C(=O)C(=O)N(CCN(C)C)C2c2ccccc2F)cc1 (centres unmarked) | -13.4%

Row | SMILES | hERG current change (%, negative = inhibition) at 10uM
39 | Cc1ccc(C(=O)NC(N2CCCC2)C(Cl)(Cl)Cl)cc1 (centres unmarked) | 0.862%
40 | Cc1ccc(C)c(N2CCN(C(=O)CCc3nc4ccccc4[nH]3)CC2)c1 | 1.66%
41 | O=C(c1cc(COc2ccc(F)cc2F)on1)N1CCOCC1 | 17.7%
42 | Cc1cc(C)cc(NC(=O)[C@@H](NC(=O)c2ccco2)C(C)C)c1 | 5.62%
43 | O=C(c1ccccc1)C1NC1c1ccccc1 (centres unmarked) | 10.5%
44 | CC(=O)Nc1ccc(OC(=O)c2cc([N+](=O)[O-])ccc2Cl)cc1 | -4.87%
45 | C=C(C)C1CC=C(C)/C(=N/NC(=O)c2ccc(NC(=O)CC)cc2)C1 (centres unmarked) | -15.1%
46 | COc1ccc(NS(=O)(=O)c2cc(NC(=O)c3ccc(C)o3)ccc2N2CCCCC2)cc1 | 2.8%
47 | N/C(=N\OC(=O)c1ccccc1Cl)c1ccc(Cl)cc1 | -29.6%
48 | Cc1cc(C)nc(NC(=O)c2ccc(OC(C)C)cc2)n1 | 1.25%
49 | Cc1coc2cc3oc(=O)c(CCC(=O)N4C[C@H]5C[C@@H](C4)c4cccc(=O)n4C5)c(C)c3cc12 | -42.5%
50 | Cc1ccc(C(=O)CC(C(=O)O)n2cnc([N+](=O)[O-])n2)cc1 (centres unmarked) | 15.2%
51 | CC(O/N=C/c1ccccc1OC(F)F)C(=O)Nc1cccc(S(=O)(=O)N2CCOCC2)c1 (centres unmarked) | -33.9%
52 | CCOc1ccccc1CN1CCCC(CNC(=O)Cc2ccc(OC)cc2)C1 (centres unmarked) | -22.1%
53 | COCC(=O)N=Nc1c(O)[nH]c2ccccc12 | -5.52%
54 | O=C(Oc1cccc(Oc2ccccc2)c1)N1CCOCC1 | -22.9%
55 | CC(C)(C)c1ccc(S(=O)(=O)N2CCCC2C(=O)N2CCOCC2)cc1 (centres unmarked) | -18%
56 | CCCC(NS(=O)(=O)c1ccc(C)cc1)C(=O)O (centres unmarked) | 3.73%
